Source: PubChem BioAssay AID1346428 (National Center for Advancing Translational Sciences (NCATS), 2018)
Several values for one entry are separate records, joined by “and”; a condition that tells them apart may be missing. Identical values can stand only once. Among all 48,000 compounds or so, about 1,200 (2.5%) were called active. Inconclusive results (about 2%) are left out.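 How the source made its calls: active means activation of at least 60% and not above a set upper limit (about 1 call in 100 departs from these limits); inconclusive means activation of 40% to 60%, or above that upper limit; inactive means activation under 40%.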 This is one part of the list.

Target: Probable G-protein coupled receptor 32 (Homo sapiens) (UniProt O75388)
Test: qHTS for Agonists of Human Resolvin D1 Receptor DRV1; further: 0% is about no effect
Conditions: CHO-K1 GPR32 beta-arrestin PathHunter luminescence, 90 min; at 76.9 µM; hits give high values; zero percent set by DMSO-only wells
Summary of the method: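 Engineered CHO-K1 line co-expressing GPR32-ProLink and EA-beta-arrestin. Compound treatment lasted 90 min at 37 °C. Luminescence was recorded after 1 h with substrate at ambient temperature, relative to DMSO basal wells.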

UniProt O75388, sequence (O75388 whole entry, looked up): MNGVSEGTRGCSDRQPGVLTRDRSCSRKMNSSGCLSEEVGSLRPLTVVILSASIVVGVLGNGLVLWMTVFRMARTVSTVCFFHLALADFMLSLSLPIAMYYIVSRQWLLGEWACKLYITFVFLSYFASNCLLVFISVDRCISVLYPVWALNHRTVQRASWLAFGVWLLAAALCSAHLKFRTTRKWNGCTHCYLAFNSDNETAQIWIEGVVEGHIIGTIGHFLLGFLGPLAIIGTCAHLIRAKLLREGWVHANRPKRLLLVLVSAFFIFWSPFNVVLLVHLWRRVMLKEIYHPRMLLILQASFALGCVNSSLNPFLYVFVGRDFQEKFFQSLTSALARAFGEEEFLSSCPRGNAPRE

SMILES | activation
O=C(CSc1n[nH]c(-c2ccccc2)n1)N1CCN(c2ccccc2F)CC1 | inactive: -5.78%
Cn1c(=O)c2[nH]cnc2n(C)c1=O | inactive: -2.7% and inactive: 2.07%
Cc1ccc(NC(=O)Cn2c(=O)c3ccccc3n3nncc23)cc1 | inactive: -4.37%
CCSc1oc(-c2ccco2)nc1S(=O)(=O)c1ccc(Br)cc1 | inactive: -24.2%
CC(=O)c1ccc(Nc2nc3c(S(=O)(=O)c4ccccc4)nnn3c3ccc(Cl)cc23)cc1 | inactive: -11.4%
Cc1[nH]c(=O)c(C#N)cc1-c1ccncc1 | inactive: -6.24% and inactive: 0.285% and inactive: 2.09%
CCN1c2ccccc2-c2nc(SCC(=O)NCc3ccccc3)ncc2S1(=O)=O | inactive: -0.758%
COC(=O)CCNC(=O)NC(CCC(C)C)c1c(-n2cccc2)sc2c1CCN(C)C2 (stereo not drawn) | inactive: -21.6%
CCCc1cc(=O)[nH]c(SCC(=O)N2CCN(c3ccccc3OC)CC2)n1 | inactive: -17.2%
COc1cc(NC(=O)c2cc3c(s2)-c2ccccc2OC3)cc(OC)c1OC | inactive: -10.4%
CCCN(CCC)C(=O)Cn1c(=O)n(-c2ccc(Cl)cc2)c(=O)c2c3c(sc21)CCCCC3 | inactive: -4.19%
Cc1ccc(-c2nn(-c3ccc(F)cc3)c3c2cnc2cc(F)c(F)cc23)cc1 | inactive: -3.66%
CCC(=O)N1CCc2cc(S(=O)(=O)NCCC(=O)Nc3cc(C)ccc3OC)ccc21 | inactive: -9.02%
Cc1ccc2nc(-c3ccc(O)cc3)c(Nc3ccc(Cl)cc3)n2c1 | inactive: -15.8%
COc1ccccc1NC(=O)Cn1c(=O)n(CCC(=O)NCC2CCCO2)c(=O)c2cc(OC)c(OC)cc21 (stereo not drawn) | inactive: 9.74%
COc1ccccc1-c1cc2nc(C)c(CCC(=O)O)c(C)n2n1 | inactive: -0.841%
Cc1nn(-c2ccc(N3CCCCC3)nn2)c(C)c1CCC(=O)NCc1ccc(OC(C)C)cc1 | inactive: -16.3%
CC(=O)c1cccc(Nc2nc(-c3cccc(C)c3)nc3ccccc23)c1 | inactive: -10.4%
Cc1ccccc1C(=O)Nc1ccc(OCc2cc(=O)n3ccccc3n2)cc1 | inactive: -15%
Cc1ccc(NC(=O)Cn2cc(S(=O)(=O)N3CCCC3)c(S(=O)(=O)N3CCCC3)c2)cc1F | inactive: -17.5%
Cc1ccc(CCNC(=O)c2c[nH]c3ccc(S(=O)(=O)Nc4ccc(C)cc4C)cc3c2=O)cc1 | inactive: -21.9%
Cc1ccc(C)c(S(=O)(=O)c2nnn3c2nc(Nc2ccc(C)c(C)c2)c2ccccc23)c1 | inactive: 17.6%
COc1cccc(NC(=O)CCN2CCN(c3ccccc3)CC2)c1 | inactive: -4.96%
COc1cccc(C(=O)NCC(c2ccc(N(C)C)cc2)N2CCc3ccccc32)c1 (stereo not drawn) | inactive: -31.5%
CCOC(=O)/C(C#N)=C/c1ccc(-c2ccc(Br)cc2)o1 | inactive: 0.366%
Cc1ccccc1-c1noc(-c2cccnc2N2CCN(c3ccccc3)CC2)n1 | inactive: -9.01%
CCCCS(=O)(=O)CC(O)CSc1nc(-c2ccc(C)cc2)cc(-c2ccccc2)c1C#N (stereo not drawn) | inactive: -23.4%

SMILES | activation
COc1cccc(C(=O)Nc2cccc(-c3cn4ccsc4n3)c2)c1OC | inactive: 0.663%
CCc1cccc(NS(=O)(=O)c2ccc(-n3cccn3)cc2)c1 | active: 85.9%
CCN(CC)C(=O)Cn1c(=O)n(-c2ccc(C)c(C)c2)c(=O)c2c3c(sc21)CCCCC3 | inactive: -2.01%
CCOC(=O)c1ccc(NC(=O)CCn2c(=O)c3cccn3c3cccnc32)cc1 | inactive: -12%
O=C(Nc1ccc(F)cc1F)c1cc(-c2ccc(Cl)cc2)on1 | inactive: 1.72%
O=C(NCCCN1CCN(c2ccc(F)cc2)CC1)c1cnn(-c2ccc(F)cc2)c1-n1cccc1 | inactive: 35.8%
CCc1ccc(NC(=O)CSc2ccc(-c3ccccn3)nn2)cc1 | inactive: -3.44%
COc1ccc(NC(=O)c2ccc3c(SCC(=O)O)c4c(nc3c2)CCCC4)c(OC)c1 | inactive: -6.89%
O=C(CN1C(=O)COc2ccc(S(=O)(=O)N3CCOCC3)cc21)N1CCN(c2cccc(Cl)c2)CC1 | inactive: 22%
C#CCSc1nc(-c2ccccc2)cc(-c2ccccc2)c1C#N | inactive: -32%
Cc1ccc(-n2c3c(cc(-c4nc(-c5ccc(Cl)cc5)cs4)c2=O)C(=O)CC(C)(C)C3)cc1C | inactive: -4.3%
Cc1cc(Br)ccc1NC(=O)Cn1cc(S(=O)(=O)N2CCN(c3ccccc3F)CC2)c2ccccc2c1=O | inactive: -2.47%
COc1ccc(NC(=O)C2CCCN(c3ncnc4c3nc3n4CCCCC3)C2)c(OC)c1 (stereo not drawn) | inactive: -11.2%
COc1cc(NS(=O)(=O)c2cc3c(cc2C)N(C)CCO3)cc(OC)c1OC | inactive: -19.5%
Cc1ccnc2c1NC(=O)c1cccnc1N2C1CC1 | inactive: -3.52%
CN(C)CCC=C1c2ccccc2CCc2ccccc21 | inactive: 3.71% and inactive: -2.89%
Cc1ccc(C)c(N2CCN(C(=O)CCc3nnc4n(CC(C)C)c(=O)c5ccccc5n34)CC2)c1 | inactive: -4.62%
C#C[C@]1(O)CC[C@H]2[C@@H]3CCc4cc(OC5CCCC5)ccc4[C@H]3CC[C@@]21C | active: 68%
CC1=C(c2ccc(C(C)C)cc2)S(=O)(=O)NC1=NCCCN1CCN(c2ccccc2F)CC1 | inactive: 0.545%
Cc1ccc(CN2CCc3nc(Nc4ccc5c(c4)OCCO5)ncc3C2)cc1 | inactive: 29.3%
CCS(=O)(=O)N1CCc2cc(C(=O)Nc3ccc(C(=O)OC)cc3)ccc21 | inactive: 17.7%
CCOc1ccc(CNC(=O)c2cnc3sc(N4CCOCC4)nn3c2=O)cc1 | inactive: 0.665%
CCn1cc(C(=O)N2CCN(c3cccc(Cl)c3)CC2)c2cc(OC)c(OC)cc2c1=O | inactive: 14.6%
COc1ccc(-c2nc(CCNC(=O)c3cccs3)cs2)cc1 | inactive: 8.94%
CNC(=O)Cn1nc(-c2ccc(Cl)cc2)c2ccccc2c1=O | inactive: 1.1%
CCOC(=O)c1ccc(NC(=O)CC2Sc3ccc(C(F)(F)F)cc3NC2=O)cc1 (stereo not drawn) | inactive: 21.5%
